{"source": "the supplement of paper PMC12645437", "about": "“Orthogonal IMiD-Degron Pairs Induce Selective Protein Degradation in Cells” (ACS Chemical Biology, 2025)", "sequences": {"B1": {"name": "Q9UKT9 (peptide)", "chain": "LCCPICGFVCTQKGNLLRHIKL"}, "B2": {"name": "Q9UKT9 (peptide)", "chain": "FVCEICGHHFTQKGNLLRHIKL"}, "B3": {"name": "Q9UKT9 (peptide)", "chain": "FLCEICGHGFTQKGNLLRHIKL"}, "B4": {"name": "Q9UKT9 (peptide)", "chain": "FECDVCGATFTQKGNLLRHIKL"}, "B5": {"name": "Q9UKT9 (peptide)", "chain": "FICNQCGAHFTQKGNLLRHIKL"}, "B6": {"name": "Q9UKT9 (peptide)", "chain": "FVCPQCGAPFTQKGNLLRHIKL"}, "B7": {"name": "Q9UKT9 (peptide)", "chain": "FRCDICGAIFTQKGNLLRHIKL"}, "B8": {"name": "Q9UKT9 (peptide)", "chain": "FICNQCGRYFTQKGNLLRHIKL"}, "B9": {"name": "Q9UKT9 (peptide)", "chain": "FKCPQCGAKFTQKGNLLRHIKL"}, "B10": {"name": "Q9UKT9 (peptide)", "chain": "FCCPICGADFTQKGNLLRHIKL"}, "B11": {"name": "Q9UKT9 (peptide)", "chain": "FLCNQCGARFTQKGNLLRHIKL"}, "B12": {"name": "Q9UKT9 (peptide)", "chain": "FWCNQCGAHFTQKGNLLRHIKL"}, "B13": {"name": "Q9UKT9 (peptide)", "chain": "FECPICGRHFTQKGNLLRHIKL"}, "B14": {"name": "Q9UKT9 (peptide)", "chain": "FFCEICGADFTQKGNLLRHIKL"}, "B15": {"name": "Q9UKT9 (peptide)", "chain": "FTCNICGALFTQKGNLLRHIKL"}, "B16": {"name": "Q9UKT9 (peptide)", "chain": "FQCPICGAFFTQKGNLLRHIKL"}, "B17": {"name": "Q9UKT9 (peptide)", "chain": "LLCEICGFICTQKGNLLRHIKL"}, "B18": {"name": "Q9UKT9 (peptide)", "chain": "FHCNQCGAPFTQKGNLLRHIKL"}, "B19": {"name": "Q9UKT9 (peptide)", "chain": "LTCPICGFDCTQKGNLLRHIKL"}, "B20": {"name": "Q9UKT9 (peptide)", "chain": "FICNQCGHGFTQKGNLLRHIKL"}, "B21": {"name": "Q9UKT9 (peptide)", "chain": "FDCDICGASFTQKGNLLRHIKL"}, "B22": {"name": "Q9UKT9 (peptide)", "chain": "FYCNICGAVFTQKGNLLRHIKL"}, "B23": {"name": "Q9UKT9 (peptide)", "chain": "FWCPICGHFFTQKGNLLRHIKL"}, "B24": {"name": "Q9UKT9 (peptide)", "chain": "FFCNICGAQFTQKGNLLRHIKL"}, "B25": {"name": "Q9UKT9 (peptide)", "chain": "FLCNVCGAAFTQKGNLLRHIKL"}, "B26": {"name": "Q9UKT9 (peptide)", "chain": "FMCNQCGAGFTQKGNLLRHIKL"}, "B27": {"name": "Q9UKT9 (peptide)", "chain": "FRCNQCGAMFTQKGNLLRHIKL"}, "B28": {"name": "Q9UKT9 (peptide)", "chain": "FECEICGHLFTQKGNLLRHIKL"}, "B29": {"name": "Q9UKT9 (peptide)", "chain": "FKCDICGALFTQKGNLLRHIKL"}, "B30": {"name": "Q9UKT9 (peptide)", "chain": "FECPVCGADFTQKGNLLRHIKL"}, "B31": {"name": "Q9UKT9 (peptide)", "chain": "FRCNQCGAYFTQKGNLLRHIKL"}, "B32": {"name": "Q9UKT9 (peptide)", "chain": "FCCPICGATFTQKGNLLRHIKL"}, "B33": {"name": "Q9UKT9 (peptide)", "chain": "FSCPVCGARFTQKGNLLRHIKL"}, "B34": {"name": "Q9UKT9 (peptide)", "chain": "FHCNQCGRGFTQKGNLLRHIKL"}, "B35": {"name": "Q9UKT9 (peptide)", "chain": "FTCDICGANFTQKGNLLRHIKL"}, "B36": {"name": "Q9UKT9 (peptide)", "chain": "LICNQCGFPCTQKGNLLRHIKL"}, "B37": {"name": "Q9UKT9 (peptide)", "chain": "FTCNVCGAIFTQKGNLLRHIKL"}, "B38": {"name": "Q9UKT9 (peptide)", "chain": "FRCEQCGALFTQKGNLLRHIKL"}, "B39": {"name": "Q9UKT9 (peptide)", "chain": "FGCEICGRVFTQKGNLLRHIKL"}, "B40": {"name": "Q9UKT9 (peptide)", "chain": "FNCNQCGRQFTQKGNLLRHIKL"}, "B41": {"name": "Q9UKT9 (peptide)", "chain": "FGCNQCGANFTQKGNLLRHIKL"}, "B42": {"name": "Q9UKT9 (peptide)", "chain": "FRCEQCGATFTQKGNLLRHIKL"}, "B43": {"name": "Q9UKT9 (peptide)", "chain": "FCCPICGRAFTQKGNLLRHIKL"}, "B44": {"name": "Q9UKT9 (peptide)", "chain": "FKCSVCGHAFTQKGNLLRHIKL"}, "B45": {"name": "Q9UKT9 (peptide)", "chain": "FHCDQCGARFTQKGNLLRHIKL"}, "B46": {"name": "Q9UKT9 (peptide)", "chain": "FGCNQCGRQFTQKGNLLRHIKL"}, "B47": {"name": "Q9UKT9 (peptide)", "chain": "FHCDVCGADFTQKGNLLRHIKL"}, "B48": {"name": "Q9UKT9 (peptide)", "chain": "FYCEVCGAHFTQKGNLLRHIKL"}, "B49": {"name": "Q9UKT9 (peptide)", "chain": "FRCNICGAYFTQKGNLLRHIKL"}, "B50": {"name": "Q9UKT9 (peptide)", "chain": "LTCEICGFVCTQKGNLLRHIKL"}}, "note": "The list shows a part of the results.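 Also: jurkat cells carrying a lentiviral library of mutant zinc finger degrons fused to EGFP plus mCherry, mCherry+ cells FACS sorted, degron abundance counted by next-generation sequencing.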", "data": [{"target": "no compound (DMSO)", "assay": "log2 fold change of degron read counts, EGFP-low vs EGFP+ sorted cells; higher = lower degron-EGFP level without compound (poor expression or instability)", "conditions": "compound: DMSO control; 18 h", "values": [{"sequence": "B1", "log2 fold change of degron read counts": 1.2}, {"sequence": "B2", "log2 fold change of degron read counts": -2.51}, {"sequence": "B3", "log2 fold change of degron read counts": -2.58}, {"sequence": "B4", "log2 fold change of degron read counts": -1.11}, {"sequence": "B5", "log2 fold change of degron read counts": -0.239}, {"sequence": "B6", "log2 fold change of degron read counts": 0.102}, {"sequence": "B7", "log2 fold change of degron read counts": -0.612}, {"sequence": "B8", "log2 fold change of degron read counts": 0.844}, {"sequence": "B9", "log2 fold change of degron read counts": -1.23}, {"sequence": "B10", "log2 fold change of degron read counts": -0.0683}, {"sequence": "B11", "log2 fold change of degron read counts": -0.664}, {"sequence": "B12", "log2 fold change of degron read counts": 0.895}, {"sequence": "B13", "log2 fold change of degron read counts": -0.581}, {"sequence": "B14", "log2 fold change of degron read counts": -1.88}, {"sequence": "B15", "log2 fold change of degron read counts": -0.433}, {"sequence": "B16", "log2 fold change of degron read counts": 0.00788}, {"sequence": "B17", "log2 fold change of degron read counts": 1.49}, {"sequence": "B18", "log2 fold change of degron read counts": -0.308}, {"sequence": "B19", "log2 fold change of degron read counts": 0.221}, {"sequence": "B20", "log2 fold change of degron read counts": -1.2}, {"sequence": "B21", "log2 fold change of degron read counts": -2.18}, {"sequence": "B22", "log2 fold change of degron read counts": 0.238}, {"sequence": "B23", "log2 fold change of degron read counts": 2.15}, {"sequence": "B24", "log2 fold change of degron read counts": -0.0495}, {"sequence": "B25", "log2 fold change of degron read counts": -1.34}, {"sequence": "B26", "log2 fold change of degron read counts": -0.974}, {"sequence": "B27", "log2 fold change of degron read counts": -0.376}, {"sequence": "B28", "log2 fold change of degron read counts": -1.65}, {"sequence": "B29", "log2 fold change of degron read counts": -1.35}, {"sequence": "B30", "log2 fold change of degron read counts": -0.926}, {"sequence": "B31", "log2 fold change of degron read counts": 0.166}, {"sequence": "B32", "log2 fold change of degron read counts": -0.0318}, {"sequence": "B33", "log2 fold change of degron read counts": -0.198}, {"sequence": "B34", "log2 fold change of degron read counts": -0.131}, {"sequence": "B35", "log2 fold change of degron read counts": -1.73}, {"sequence": "B36", "log2 fold change of degron read counts": 0.261}, {"sequence": "B37", "log2 fold change of degron read counts": -0.221}, {"sequence": "B38", "log2 fold change of degron read counts": -1.72}, {"sequence": "B39", "log2 fold change of degron read counts": -0.588}, {"sequence": "B40", "log2 fold change of degron read counts": -0.699}, {"sequence": "B41", "log2 fold change of degron read counts": -0.397}, {"sequence": "B42", "log2 fold change of degron read counts": -1.6}, {"sequence": "B43", "log2 fold change of degron read counts": -0.178}, {"sequence": "B44", "log2 fold change of degron read counts": -0.648}, {"sequence": "B45", "log2 fold change of degron read counts": -1.16}, {"sequence": "B46", "log2 fold change of degron read counts": 0.0492}, {"sequence": "B47", "log2 fold change of degron read counts": -2.43}, {"sequence": "B48", "log2 fold change of degron read counts": -1.04}, {"sequence": "B49", "log2 fold change of degron read counts": 0.71}, {"sequence": "B50", "log2 fold change of degron read counts": -0.499}]}]}
